# Certain results were filed several times, with different values. This is not the full list of results. There may be further records. Values that stand side by side repeat one measurement in other runs, samples, wells, individuals or studies.
# Legend:
# Format in all cases: toxicity, cell-based
# [1] = tested on: U2OS; experiment: Multiplex assay against U2OS; conditions: human
# How it was run: (§1)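 Live cells were stained at seeding with Hoechst33342, BioTracker Green Microtubule Cytoskeleton Dye, MitoTracker Red and Annexin V Alexa Fluor 680, then imaged on a CQ1 microscope at 37°C and 5% CO2 after compound addition. CellPathfinder machine-learning gating split cells into Hoechst high-intensity objects or normal cells. Normal cells were split into healthy, pyknosed or fragmented nuclei, and pyknosed cells into mitotic or apoptotic. Tubulin, mitochondrial-mass and membrane-permeability phenotypes are per cents of healthy-nucleus cells.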
# [2] = tested on: Fibroblast; experiment: Multiplex assay against human fibroblast; how it was run: as §1
# [3] = tested on: HEK-293T; experiment: Multiplex assay against HEK293T; conditions: human; how it was run: as §1
# [4] = 12 h, 10 µM, compound concentration 10 uM
# [5] = 24 h, 10 µM, compound concentration 10 uM
# [6] = 48 h, 10 µM, compound concentration 10 uM
# [7] = 12 h, 1 µM, compound concentration 1 uM
# [8] = 24 h, 1 µM, compound concentration 1 uM
# [9] = 48 h, 1 µM, compound concentration 1 uM
Structure (SMILES),"Population Mitochondria Different-Phenotype (%) [1, 4]","Population Mitochondria Different-Phenotype (%) [1, 5]","Population Healthy Nuclei (%) [3, 7]","Population Tubulin-Different-Phenotype (%) [3, 7]","Population Healthy Nuclei (%) [3, 4]","Population Healthy Nuclei (%) [3, 8]","Population Pyknosed Nuclei (%) [3, 8]","Total Cell Count [3, 8]","Population Healthy Nuclei (%) [3, 5]","Population Pyknosed Nuclei (%) [3, 9]","Population Tubulin-Different-Phenotype (%) [3, 9]","Total Cell Count [3, 9]","Population Tubulin-Different-Phenotype (%) [3, 6]","Total Cell Count [3, 6]","Total Cell Count [1, 5]","Total Cell Count [1, 6]","Population Tubulin-Different-Phenotype (%) [2, 9]","Population Tubulin-Different-Phenotype (%) [3, 4]",further results
FC(F)(F)c1ccccc1-c1cc(C(F)(F)F)c2[nH]c(C3=NOC4(CCCCC4)C3)nc2c1,4.38% and 34.65%,1.66% and 38.13%,53.7% and 12.75%,6.9% and 26.32%,45.1% and 9.73%,79.85% and 25.87%,18.67% and 72.03%,541 and 143,53.52% and 7.87%,12.16% and 45.75%,2.33% and 41.98%,1201 and 153,19.58% and 79.49%,511 and 116,,,,,"Population Membrane Permeable-Phenotype (%) [1, 5]: 7.62% and 25.18%; Population Membrane Permeable-Phenotype (%) [1, 6]: 6.79% and 21.71%; Population Mitochondria Different-Phenotype (%) [1, 6]: 1.2% and 26.29%; Population Apoptotic (%) [2, 6]: 3.57% and 44.83%; Population Apoptotic (%) [3, 9]: 5.48% and 21.43%"
O=C(Nc1ccccc1Br)N[C@@H]1CCN(c2ccc(C(F)(F)F)cn2)C1 [SB-705498],,0.2% and 16.55%,59.88% and 19.75%,8.37% and 40.62%,42.69% and 8.78%,,23.17% and 71.93%,562 and 171,64.72% and 18.18%,10.9% and 40.78%,1.62% and 50.48%,1147 and 179,3.99% and 50%,869 and 176,579 and 167,1026 and 273,,,"Population Fragmented Nuclei (%) [2, 7]: 26.49% and 5.82%; Population Fragmented Nuclei (%) [2, 8]: 23.81% and 4.5%; Population Apoptotic (%) [3, 6]: 4.72% and 19.75%; Population Pyknosed Nuclei (%) [3, 6]: 14.61% and 46.02%"
CN(C)Cc1cccc(NC(=C2C(=O)Nc3cc(C(N)=O)ccc32)c2ccccc2)c1,1.13% and 16.2%,1.54% and 14.09%,54.85% and 17.69%,4.04% and 50%,,,,559 and 153,,,2.48% and 31.78%,1086 and 171,5.89% and 45.64%,800 and 254,,,,,"Population Fragmented Nuclei (%) [1, 4]: 3.64% and 20.6%; Population Fragmented Nuclei (%) [1, 5]: 2.98% and 15.64%; Population Fragmented Nuclei (%) [1, 6]: 3.83% and 14.08%; Population Fragmented Nuclei (%) [2, 4]: 15.09% and 3.82%; Population Mitochondria Different-Phenotype (%) [2, 9]: 13.51% and 2.67%; Population Fragmented Nuclei (%) [2, 6]: 17.61% and 5.43%"
CCn1cnc2c(-c3ccc(F)c(-c4ccc(S(=O)(=O)CC)cc4OC)c3)cnnc21 [DARIGABAT],1.19% and 35.78%,0.76% and 28.07%,,,30.7% and 9.7%,61.23% and 14.29%,,455 and 114,36.52% and 10.95%,,3.72% and 43.55%,732 and 146,21.08% and 78.95%,,,,5.48% and 19.05%,,"Population Tubulin-Different-Phenotype (%) [1, 4]: 14.62% and 2.75%; Population Mitochondria Different-Phenotype (%) [1, 6]: 3.63% and 37.5%; Population Fragmented Nuclei (%) [2, 4]: 14.94% and 0.96%; Population Fragmented Nuclei (%) [2, 5]: 19.77% and 5.41%; Population Fragmented Nuclei (%) [2, 6]: 17.74% and 5.43%; Population Tubulin-Different-Phenotype (%) [3, 5]: 63.1% and 13.33%; Population Healthy Nuclei (%) [3, 6]: 63.14% and 14.73%"
Clc1ccccc1C(c1ccccc1)(c1ccccc1)n1cccn1,0.65% and 14.86%,0.5% and 12.9%,60.42% and 15.75%,2.96% and 25%,53% and 17.24%,78.65% and 25.68%,20.38% and 68.24%,521 and 148,,,1.47% and 27.61%,1314 and 230,2.4% and 48.94%,1016 and 267,480 and 126,756 and 166,3.12% and 17.54%,9.43% and 50%,"Population Pyknosed Nuclei (%) [1, 7]: 4.84% and 17.7%; Total Cell Count [1, 7]: 351 and 113; Total Cell Count [1, 4]: 366 and 104; Total Cell Count [1, 8]: 475 and 144; Total Cell Count [1, 9]: 893 and 220; Population Fragmented Nuclei (%) [2, 7]: 15.66% and 5.17%; Population Tubulin-Different-Phenotype (%) [2, 7]: 7.14% and 22.86%; Population Apoptotic (%) [2, 8]: 3.57% and 40%; Population Pyknosed Nuclei (%) [2, 8]: 16.87% and 5.46%; Population Fragmented Nuclei (%) [2, 5]: 12.39% and 2.27%; Population Tubulin-Different-Phenotype (%) [3, 5]: 32.13% and 6.67%"
Cl.Clc1cc2cc(c1)-c1cnn3ccc(nc13)NCCOCCO2,0.24% and 10.88%,,61.13% and 11.54%,1.84% and 16.67%,,78.11% and 23.65%,20.96% and 71.62%,539 and 148,,9.51% and 33.33%,1.33% and 31.06%,1378 and 206,0.4% and 19.67%,862 and 265,,,7.65% and 24.46%,6.55% and 41.46%,"Population Apoptotic (%) [1, 7]: 43.75% and 5.88%; Total Cell Count [1, 9]: 936 and 308; Population Apoptotic (%) [2, 5]: 9.68% and 30.3%; Population Mitochondria Different-Phenotype (%) [2, 9]: 18.03% and 2.15%; Population Apoptotic (%) [3, 9]: 2.29% and 16.18%"
CC(C)CC(=O)Nc1cncc(-c2ccc3[nH]nc(-c4nc5c(-c6cccc(F)c6)cncc5[nH]4)c3c2)c1 [LORECIVIVINT],,,29.19% and 6.48%,,,33.97% and 7.48%,,,,,,,,,,,,32.26% and 6.45%,"Population Mitochondria Different-Phenotype (%) [1, 7]: 0.33% and 11.4%; Population Mitochondria Different-Phenotype (%) [1, 8]: 0.32% and 16.96%; Population Tubulin-Different-Phenotype (%) [1, 6]: 19.46% and 3.53%; Population Apoptotic (%) [2, 7]: 4.55% and 37.04%; Population Mitochondria Different-Phenotype (%) [3, 5]: 24.39% and 5%; Population Healthy Nuclei (%) [3, 9]: 34.76% and 8.94%; Population Membrane Permeable-Phenotype (%) [3, 9]: 5.26% and 27.27%"
O=C(Nc1cc(C(F)(F)F)cc(C(F)(F)F)c1)c1cc(Cl)ccc1O [IMD-0354],,,,3.38% and 37.04%,,,,,15.62% and 3.53%,,1.78% and 19.27%,718 and 203,7.32% and 29.41%,,,,,,"Population Fragmented Nuclei (%) [1, 6]: 3.05% and 18.35%; Population Tubulin-Different-Phenotype (%) [2, 4]: 4.46% and 16.67%; Population Membrane Permeable-Phenotype (%) [2, 5]: 5.21% and 18.82%; Population Tubulin-Different-Phenotype (%) [2, 5]: 11.46% and 40%; Population Mitochondria Different-Phenotype (%) [3, 7]: 42.57% and 7.41%; Population Mitochondria Different-Phenotype (%) [3, 4]: 63.64% and 0%"
COc1ccc(-n2c(C)c([N+](=O)[O-])c3ccc(O)cc32)cc1,,,56.94% and 11.89%,8.63% and 47.06%,58.84% and 16.18%,,,545 and 148,,10.35% and 31.52%,2.78% and 52.89%,1035 and 184,4.89% and 37.74%,702 and 161,600 and 180,1001 and 290,5.45% and 22.09%,8.23% and 31.82%,"Total Cell Count [1, 4]: 466 and 140; Total Cell Count [3, 4]: 414 and 137; Population Tubulin-Different-Phenotype (%) [3, 8]: 23.93% and 4.88%"

# From ChEMBL document CHEMBL5724801, “EUbOPEN Chemogenomics Library - Multiplex” (2024)
